According to patent US20250340652A1 (CHENGDU DI AO PHARMACEUTICAL GROUP, published 2025):
Values belong to the binder of their own block, whether it stands above or below them.

Columns and labels:
CC1H-Biotin [1] = target: T1, CC1H-Biotin (human, UniProt Q13018 21-367, biotin by EZ-Link Sulfo-NHS-LC-Biotin, 1.80 mol Biotin/mol protein; sites not given); assay: BLI (Octet N1), CC1H-Biotin on SA sensor; BLI, CC1H-Biotin on sensor; no binding, also no significant binding in ELISA
T1 construct: also called biotin-labeled CC1H

CC1H-Biotin [2] = target: T1, CC1H-Biotin; assay: BLI (Octet N1), CC1H-Biotin on SA sensor, antibody 76.6-8.5 nM
Procedure: Sartorius Octet® N1 molecular interaction instrument was used, the SA sensor (Sartorius, Octet® Streptavidin (SA) Biosensor, 18-5019) was selected.
The sensor was immersed in a PBSTB buffer (0.02% Tween-20 and 0.1% BSA were added in the PBS buffer) to be pre-wetted for 10 min or longer, and loaded onto the molecular interaction instrument.
The association constant (Ka), dissociation constant (Kd), and affinity constant (KD) were calculated and illustrated in Table 5 for details.

binding result (CC1H-Biotin [1]): no binding (tested: 76.6 nM~8.5 nM)
B1: B88 (antibody, human IgG4, kappa)
heavy: QVQLVQSGAEVKKPGSSVKVSCKASGGTFSSYTISWVRQAPGQGLEWMGRIIPILGIANYAQKFQGRVTITADKSTSTAYMELSSLRSEDTAVYYCATGVGMVRGDPWGQGTLVTVSSASTKGPSVFPLAPCSRSTSESTAALGCLVKDYFPEPVTVSWNSGALTSGVHTFPAVLQSSGLYSLSSVVTVPSSSLGTKTYTCNVDHKPSNTKVDKRV[human IgG4 Fc not shown]
light: [about 120 residues not shown][about 100 residues not shown]
notes: also called […]

Kd (CC1H-Biotin [2]): 0.145 nM | koff (CC1H-Biotin [2]): 8.04e-05 s⁻¹ | kon (CC1H-Biotin [2]): 556000 M⁻¹ s⁻¹
B2: B88 (IgG4SP) (antibody)
heavy: QVQLVQSGAEVKKPGSSVKVSCKASGGTFSSYTISWVRQAPGQGLEWMGRIIPILGIANYAQKFQGRVTITADKSTSTAYMELSSLRSEDTAVYYCATGVGMVRGDPWGQGTLVTVSSASTKGPSVFPLAPCSRSTSESTAALGCLVKDYFPEPVTVSWNSGALTSGVHTFPAVLQSSGLYSLSSVVTVPSSSLGTKTYTCNVDHKPSNTKVDKRV[human IgG4 Fc with S228P (EU numbers) not shown]
light: [about 120 residues not shown][about 100 residues not shown]
notes: IgG4SP (S228P in the hinge, already in the heavy chain entry); also called B88SP; […]
